Measured values from patent US5084142A, “Separation of tertiary butyl alcohol from water by azeotropic or extractive distillation” (priority 1991, dated 1992).

Key:
[1] = Extractive distillation in 7.3 theoretical plate rectification column; conditions: for Relative Volatility (average for each theoretical plate): 7.3 theoretical plate column, extractive mode; for Relative Volatility (average for each theoretical plate) / Weight % Water, Bottoms / Weight % Water, Overhead / Weight % t-Butanol, Bottoms / Weight % t-Butanol, Overhead: 1,3-butanediol 2 hrs., triethylene glycol 1 hr.; for Weight % Water, Bottoms / Weight % Water, Overhead / Weight % t-Butanol, Bottoms / Weight % t-Butanol, Overhead: extractive
[2] = Extractive agents evaluated in vapor-liquid equilibrium still (separating water from t-butanol); format: physicochemical; conditions: for Relative Volatility: extractive agent, vapor-liquid equilibrium still; for liquid composition, t-butyl alcohol / liquid composition, water / vapor composition, t-butyl alcohol / vapor composition, water: 80 g azeotrope, 30 g agent, fourteen hours (ethylene glycol phenyl ether) or one hour (dimethyl phthalate)
From the text: (§1) The data listed in Tables 2 and 3 was obtained in a vapor-liquidequilibrium still. In every case, the starting material was the t-butyl alcohol-water azeorrope. The relative volatilities are listed for each of the agents.

[3] = Azeotropic agents evaluated in vapor-liquid equilibrium still (separating water from t-butanol); format: physicochemical; conditions: for Relative Volatility: azeotropic agent, vapor-liquid equilibrium still, water as overhead
From the text: as §1

[4] = Azeotropic distillation in 7.3 theoretical plate rectification column
[5] = brings t-butanol out as overhead (*)
[6] = one hour, agent 15 ml/min, 85° C., reflux rate 40 ml/min (Example 6)
[7] = 30 grams agent, refluxed ten hours
[8] = total reflux four hours (Example 5)

## CC(O)CCO (stereo not shown) [1,3-Butanediol]
[1]
  Relative Volatility (average for each theoretical plate): 1.178
  Weight % Water, Bottoms: 15.6 Weight %
  Weight % Water, Overhead: 5.3 Weight %
  Weight % t-Butanol, Bottoms: 84.4 Weight %
  Weight % t-Butanol, Overhead: 94.7 Weight %
[2]; [5]
  Relative Volatility: 1.20

## OCCCCO [1,4-Butanediol]
[2]; [5]
  Relative Volatility: 1.38

## CCCCCC(C)=O [2-Heptanone]
[3]
  Relative Volatility: 1.42

## CC(CO)CO [2-Methyl-1,3-propanediol]
[2]; [5]
  Relative Volatility: 1.32

## CCCCCCC(C)O (stereo not shown) [2-Octanol]
[2]; water as overhead
  Relative Volatility: 1.47

## CCCCC(=O)CC [3-Heptanone]
[2]; water as overhead
  Relative Volatility: 1.70

## CCCC(=O)CC [3-Hexanone]
[2]; water as overhead
  Relative Volatility: 1.97

## CCCCCC(=O)CC [3-Octanone]
[2]; water as overhead
  Relative Volatility: 2.0

## COc1ccccc1 [Anisole]
[2]; water as overhead
  Relative Volatility: 1.31

## OC1CCCCCCCCCCC1 [Cyclododecanol]
[2]; water as overhead
  Relative Volatility: 1.47

## CCOCCOCCOCC [Diethylene glycol diethyl ether]
[2]; water as overhead
  Relative Volatility: 1.44

## OCCOCCO [Diethylene glycol]
[2]; [5]
  Relative Volatility: 1.26

## CC(C)CC(O)CC(C)C [Diisobutyl carbinol]
[2]; water as overhead
  Relative Volatility: 1.94

## CC(C)CC(=O)CC(C)C [Diisobutyl ketone]
[2]; water as overhead
  Relative Volatility: 1.42

## COC(=O)CCCCC(=O)OC [Dimethyl adipate]
[2]; [5]
  Relative Volatility: 1.21

## CN(C)C=O [Dimethyl formamide]
[2]; [5]
  Relative Volatility: 1.35

## COC(=O)c1ccccc1C(=O)OC [Dimethyl phthalate]
[2]
  liquid composition, t-butyl alcohol: 80.3%
  liquid composition, water: 19.7%
  vapor composition, t-butyl alcohol: 85.2%
  vapor composition, water: 14.8%
[2]; [5]
  Relative Volatility: 1.41

## C[S+](C)[O-] [Dimethyl sulfoxide]
[2]; [5]
  Relative Volatility: 1.51

## CCCC(=O)OCC [Ethyl butyrate]
[2]; water as overhead
  Relative Volatility: 1.62

## CCCCC(=O)OCC [Ethyl n-valerate]
[2]; water as overhead
  Relative Volatility: 1.38

## CC(=O)OCCOC(C)=O [Ethylene glycol diacetate]
[2]; water as overhead
  Relative Volatility: 1.23

## OCCOc1ccccc1 [Ethylene glycol phenyl ether]
[2]
  liquid composition, t-butyl alcohol: 89.2%
  liquid composition, water: 10.8%
  vapor composition, t-butyl alcohol: 76.8%
  vapor composition, water: 23.3%
[2]; water as overhead
  Relative Volatility: 2.49

## CCCCCCOC(C)=O [Hexyl acetate]
[3]
  Relative Volatility: 2.0

## CCCCCCO [Hexyl alcohol]
[2]; water as overhead
  Relative Volatility: 1.70

## CCCC(=O)OCC(C)C [Isobutyl butyrate]
[2]; water as overhead
  Relative Volatility: 1.22

## CC(C)CCCCCCCO [Isodecanol]
[2]; water as overhead
  Relative Volatility: 1.63

## CC1=CC(=O)CC(C)(C)C1 [Isophorone]
[2]; water as overhead
  Relative Volatility: 1.54

## CCCCCC(=O)OC [Methyl caproate]
[2]; water as overhead
  Relative Volatility: 2.07

## CC(=O)CCC(C)C [Methyl isoamyl ketone]
[2]; water as overhead
  Relative Volatility: 1.61

## OCCOCCOCCO [Triethylene glycol]
[1]
  Relative Volatility (average for each theoretical plate): 1.235
  Weight % Water, Bottoms: 19.8 Weight %
  Weight % Water, Overhead: 5 Weight %
  Weight % t-Butanol, Bottoms: 80.2 Weight %
  Weight % t-Butanol, Overhead: 95 Weight %
[1]; [6]
  bottoms analysis, t-butyl alcohol: 80.22%
  bottoms analysis, water: 19.8%
  overhead analysis, t-butyl alcohol: 95%
  overhead analysis, water: 5%
[2]; [5]
  Relative Volatility: 2.33

## C=COCC(C)C [Vinyl isobutyl ether]
[3]; [7]
  liquid composition, t-butyl alcohol: 94.1%
  liquid composition, water: 5.1%
  vapor composition, t-butyl alcohol: 84.1%
  vapor composition, water: 15.9%
[3]
  Relative Volatility: 3.5

## C=COCCCC [Vinyl n-butyl ether]
[4]; 7.3 theoretical plate column, azeotropic mode, 9 hrs.
  Relative Volatility: 1.50
[4]; azeotropic, 9 hrs.
  Weight % Agent, Bottoms: 29.1 Weight %
  Weight % Agent, Overhead: 58.2 Weight %
  Weight % Water, Bottoms: 1.0 Weight %
  Weight % Water, Overhead: 9.1 Weight %
  Weight % t-Butanol, Bottoms: 69.9 Weight %
  Weight % t-Butanol, Overhead: 32.7 Weight %
[4]; [8]
  average relative volatility for each theoretical plate: 1.24
  liquid composition, t-butyl alcohol: 68.4%
  liquid composition, vinyl n-butyl ether: 29.5%
  liquid composition, water: 2.1%
  vapor composition, t-butyl alcohol: 31.0%
  vapor composition, vinyl n-butyl ether: 64.4%
  vapor composition, water: 4.6%

## CC(O)c1ccccc1 (stereo not drawn) [alpha-Methyl benzyl alcohol]
[2]; water as overhead
  Relative Volatility: 1.36

## CCCCOC(C)=O [n-Butyl acetate]
[2]; water as overhead
  Relative Volatility: 1.47
